{
  "source": "patent US20240252670A1",
  "about": "(TSINGHUA UNIVERSITY, published 2024)",
  "binders": {"B1": {"name": "ADC HE-S2 (anti-PD-L1 THIOMAB conjugated to Compound D18 through a disulfide bond linker, DAR 2) (other)", "heavy": "EVQLLESGGGLVQPGGSLRLSCAASGFTFSSYIMMWVRQAPGKGLEWVSSIYPSGGITFYADTVKGRFTISRDNSKNTLYLQMNSLRAEDTAVYYCARIKLGTVTTVNYWGQGTLVTVSS[sequence of human IgG1 constant region omitted]", "light": "QSALTQPASVSGSPGQSITISCTGTSSDVGGYNYVSWYQQHPGKAPKLMIYDVSNRPSGVSNRFSGSKSGNTASLTISGLQAEDEADYYCSSYTSSSTRVFGTGTKVTVLGQPKANPTVTLFPPSSEELQANKATLVCLISDFYPGAVTVAWKADGSPVKAGVETTKPSKQSNNKYAASSYLSLTPEQWKSHRSYSCQVTHEGSTCEKTVAPTECS", "modifications": "Compound D18 (TLR7/8 agonist) with disulfide bond linker (from Compound 20) on the cysteine at position 226 of SEQ ID NO: 9; DAR of 2", "notes": "Antibody-drug conjugate made from anti-PD-L1 THIOMAB and Compound 20; also called ADC1"}},
  "biological_target": "T1, PD-L1 on the surface of murine cells (MC38, B16, wild-type DC 2.4) (murine, UniProt Q9EP73)",
  "T1 construct": "whole, on cells; also called PD-L1 antigen; Cd274 gene product",
  "T1 sequence (Q9EP73 19-290)": "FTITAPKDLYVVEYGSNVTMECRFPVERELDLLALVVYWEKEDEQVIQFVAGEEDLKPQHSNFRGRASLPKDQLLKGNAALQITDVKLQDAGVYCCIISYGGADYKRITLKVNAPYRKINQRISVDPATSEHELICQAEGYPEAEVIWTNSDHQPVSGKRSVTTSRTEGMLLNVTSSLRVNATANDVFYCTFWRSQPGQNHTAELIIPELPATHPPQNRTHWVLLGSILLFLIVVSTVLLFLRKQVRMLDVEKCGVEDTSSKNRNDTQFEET",
  "assay": "FACS on MC38 cells, FITC-labeled goat anti-human secondary antibody",
  "description": "A. The histograms of different colors represent, from top to bottom, the fluorescence signals measured for the negative control (NC) group, the secondary antibody group, the anti-PD-L1 antibody group, the anti-PD-L1 THIOMAB group, and the ADC HE-S2 group, respectively. B. Mean fluorescence intensity (MFI) measured after treatment with different antibody-based drugs on MC38. NC group: the negative control only added with the isotype antibody, with no secondary antibody added for staining; secondary antibody group: the control group added with the isotype antibody and stained with fluorescent secondary antibody. Student's t test was used to compare significant differences between the groups, and p<0.0001 is represented by ****.\nWith PD-L1 positive MC38 as a platform, the inventors verified whether ADC HE-S2 and the gene-modified anti-PD-L1 THIOMAB retained the original antibody-antigen binding capacity by using a fluorescence activated cell sorting (FACS) technique. […] The stained MC38 cells were analyzed on a BD FACSAria™ III flow cytometer, and the strength of FITC fluorescence signals on MC38 cells treated with different antibody-based drugs was detected and compared, so as to characterize the affinity of ADC, THIOMAB and antibodies to PD-L1.",
  "data": [
    {"binder": "B1", "values": [
      {"measurement": "MFI", "result": 392},
      {"measurement": "shift rate of the FITC positive signal relative to the NC group", "result": 34.2, "unit": "%"}
    ]}
  ]
}
